Results from the supplement of paper PMC3334620.
In all, about 33,000 sequences were measured (“E-score (-0.5 to 0.5)”: median about -0.041, highest 2% from about 0.37 on). The list shows a part of the results.

Target: T1, Ecm22 (UniProt Q05958)
T1 sequence: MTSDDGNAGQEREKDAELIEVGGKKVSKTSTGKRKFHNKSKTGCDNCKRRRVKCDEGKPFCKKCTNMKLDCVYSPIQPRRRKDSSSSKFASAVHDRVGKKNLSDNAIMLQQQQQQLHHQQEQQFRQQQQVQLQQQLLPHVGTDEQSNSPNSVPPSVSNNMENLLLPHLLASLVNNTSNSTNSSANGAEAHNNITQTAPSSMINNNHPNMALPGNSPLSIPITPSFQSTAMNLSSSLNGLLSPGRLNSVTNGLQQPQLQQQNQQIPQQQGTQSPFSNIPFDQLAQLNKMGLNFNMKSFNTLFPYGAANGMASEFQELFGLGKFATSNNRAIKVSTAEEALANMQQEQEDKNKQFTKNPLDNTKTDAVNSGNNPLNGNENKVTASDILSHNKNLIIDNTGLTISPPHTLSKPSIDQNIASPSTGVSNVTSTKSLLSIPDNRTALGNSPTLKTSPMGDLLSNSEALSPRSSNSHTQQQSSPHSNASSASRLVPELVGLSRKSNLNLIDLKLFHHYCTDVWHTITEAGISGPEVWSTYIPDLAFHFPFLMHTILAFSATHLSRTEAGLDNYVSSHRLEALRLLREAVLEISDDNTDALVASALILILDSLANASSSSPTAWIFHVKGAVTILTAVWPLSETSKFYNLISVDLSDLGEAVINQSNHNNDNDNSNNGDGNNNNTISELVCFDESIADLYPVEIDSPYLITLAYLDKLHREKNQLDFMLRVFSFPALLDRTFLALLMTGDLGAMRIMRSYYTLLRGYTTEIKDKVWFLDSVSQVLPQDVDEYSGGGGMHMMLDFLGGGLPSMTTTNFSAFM
Experiment: PBM E-score (8-mer binding enrichment) (E-score (-0.5 to 0.5)); higher = stronger / more preferred TF binding; most listed sequences are background and not binding sites
Details: protein concentration: 200 nM; construct: GST-full length
Method in brief: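 Detection of bound protein used fluorescent anti-GST, with scans normalised by masliner. The proteins were GST-tagged yeast transcription factors applied at about 100-200 nM to universal all-10-mer Agilent arrays made double-stranded by primer extension. Each ungapped eight-base word, pooled with its reverse complement, was scored with an E-score from the Universal PBM Analysis Suite.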

Sequence | PBM E-score
AAATGGGT | -0.0372
ATTATGGA | -0.0323
CAGTTGCC | -0.127
TCTGACCA | -0.106
CCTCGCAC | 0.298
AGCGCTCG | -0.0561
ACTCTGGG | -0.193
AGCCGGCG | -0.0176
ACACGACA | 0.233
GTAGAGCA | -0.13
TCCGTAAA | 0.332
CCCTCGGA | 0.211
CAGGCCGA | -0.0836
ACAACGAT | 0.152
CGACCCAG | -0.0889
CTTCTCAC | -0.187
AGACAAGC | -0.059
CTTCGGAC | 0.143
TGATACCA | 0.0464
AAATCGAC | 0.109
TCGATGCA | -0.0661
AATTGGGT | 0.0633
GAGAGATC | -0.0464
CGTAGCAC | 0.293
AAACGCTC | 0.141

Sequence | PBM E-score
CTGACGTC | -0.0569
ATCGCCCA | -0.194
ATGGATTA | -0.315
ACATGGCT | -0.0681
CCTCATAA | -0.0924
AGTTGGTG | -0.0901
GCGGCGAC | -0.0167
ACAACCAC | 0.0223
CCACCGGA | 0.0649
ATCATTGC | -0.134
GAATACGA | 0.432
TCACATGA | -0.229
CACGAGTA | 0.157
AACTACTG | -0.22
GGGGACAA | 0.07
ATAGACAA | 0.0755
AGTTGCGC | -0.0126
ATGGATAG | -0.0329
CCCCTGCC | -0.251
AACAGGGT | -0.263
GATGAGGA | -0.0394
GGATTGAA | -0.0222
GTATGAAA | 0.282
TATAGACA | 0.12
ATTCGAGC | 0.116

Sequence | PBM E-score
AGGCGTTC | -0.0549
GGGGGTAA | -0.31
AAGTTAGT | -0.073
GGGGGGGA | -0.406
AAGTAACG | 0.139
ACAGGGTA | 0.0772
CAACATCA | -0.197
TAGGTACA | -0.1
CCTGCGGA | -0.106
CGCTGCCA | -0.132
CCACGATC | 0.0737
GTCTTTGA | -0.0629
AGCAGACG | -0.0439
ACGTTTAT | 0.298
CGATAACG | 0.123
CATGCATC | -0.0492
ACCAAAAT | 0.00111
ACCCCCCC | -0.351
ACCCCGGC | -0.184
CTCAAGTA | -0.142
GATAACGC | 0.0437
AGGCCAGC | -0.0426
CAGATACA | 0.082
CAGTGTGC | -0.129
ATAAGATA | 0.071

Sequence | PBM E-score
AGGATGGC | -0.126
ACACTCCG | 0.118
CAGAGTGA | -0.012
AACTCGAT | 0.124
CTCATTGA | -0.0417
AAGACCAC | -0.319
GTAGCCAA | -0.0181
CGCTGGCC | -0.0787
CCAGAGAG | -0.247
AGTATAAG | 0.109
CGACAGTC | -0.0316
AGCAGCTG | -0.139
CGAGAGTA | 0.205
AAACCGTT | 0.15
GTAGGCGA | 0.00726
AGGCTATC | 0.131
GTACTCAA | -0.00237
ACGTGGGA | -0.112
AATTCGAT | 0.0328
AGAGGTTA | -0.14
AATCACCG | 0.0152
TGCCGAAA | 0.0373
CCGCTATA | 0.00229
AATAGGAA | -0.0522
CGATGCCC | 0.0358

Sequence | PBM E-score
CGGTGCGA | 0.297
AATTGGAA | -0.0133
ATTGGAGA | 0.0401
ACAACTCA | -0.157
CCAGACGG | -0.277
CGTTATCC | -0.00059
CTCGGATC | 0.27
AACAGACC | 0.02
CAACTCTG | -0.0711
CCTGACCG | 0.0242
CATTCGCC | -0.0739
AAAGATTT | 0.0259
CCGGTGCC | -0.147
AGGCTGTG | -0.17
ACCTAGCC | -0.184
AACCCGGA | 0.107
ATGCCATC | 0.0126
ACGCGGTA | 0.145
GTTCAGTA | 0.185
GCATATAC | 0.174
CCTTCCAA | -0.216
GTATAGCA | 0.355
TACACCTA | 0.0394
CATAGGCG | -0.118
GGGCAAAA | -0.0457

Sequence | PBM E-score
ACGGGCAT | 0.259
GCAGGGAC | -0.252
GAACGCTA | 0.0782
GCTAGAGC | 0.011
CTACGGTC | 0.0518
AAATCATT | -0.139
CACAGTAC | -0.0289
CTCCATTC | -0.209
AGAATCCC | 0.0534
CTCGGGGC | -0.135
CCCTTTTC | 0.0358
CAGTCCGG | -0.052
CACAACAC | 0.0881
ATTGCTCC | -0.0538
ATATCGGA | 0.0637
CAGCCTGG | -0.229
TACCCGTA | 0.353
CTCCTACC | -0.289
AGACTGTG | -0.0881
CAAAAAGG | -0.0945
AGTTGTTC | 0.114
ATATCCGC | 0.176
CTAATGTC | -0.169
GTACGGAA | 0.4
TCAGGTAA | -0.171

Sequence | PBM E-score
AGCAGTTC | -0.129
AAATGGAC | -0.0777
CGTTATAA | 0.14
ATCAGCCA | -0.0405
TACGGGGA | 0.348
AGGCCATC | -0.119
TCTTATAA | 0.0801
TCGGATAA | 0.372
AAAAGGGT | -0.0721
AGTCCCCA | -0.267
ATCGCCGA | 0.00202
ATTAAAGC | -0.0537
CAGCGCTC | -0.23
TCACTCCA | -0.141
CGCGTAAC | 0.142
CGGTCAGA | -0.0542
CTTCGCGA | 0.234
TCAACGAA | 0.187
AGCGAAAA | 0.15
ATGGCCAG | -0.231
GTATGCCA | -0.0264
CAATCTTA | 0.00208
